From ChEMBL document CHEMBL4888484, “Replenishing the malaria drug discovery pipeline: Screening and hit evaluation of the MMV Hit Generation Library 1 (HGL1) against asexual blood stage Plasmodium falciparum ,using a nano luciferase reporter read-out” (2022) come the findings set out here.

The campaign covered roughly 150,000 compounds. About 540 (0.36%) showed an effect of 50% or more. The list shows a part of the results.

The assay concerns Plasmodium falciparum. The assay can be described thus: Primary screen in NF54 nanoGlo assay, in single point, at 2uM, 72h; a lower Z score goes with more inhibition. As to conditions: timepoint 72 hour. Format: functional, Erythrocyte.
A word on the % Inhibition: it is the relative decrease from the control value, in per cent. For `CN(C(=O)c1ccnn1C)c1ccc(C(F)(F)F)cc1Cl`, the “% Inhibition” value stood at 9% and the Z score was -1.69.
Taken in the same sequence, the figures for `CCN1CCN(C(=O)COc2cccnc2)[C@@H](C)C1=O` were -4% and 0.7.
For `O=S(=O)(c1cccc(-c2nnc3n2CCCC3)c1)N1CCCC1`, in that order: -3% and 0.56.
Taken in the same sequence, the figures for `O=C(CCn1cncn1)N1CCCCO1` were -11% and 1.67.
In the case of `O=C(Nc1ccc(S(=O)(=O)Nc2nccs2)cc1)C1CN(c2nc3ccc(F)cc3s2)C1`, the “% Inhibition” value is given as -4% and the Z score is 0.71.
With `Cc1nc2ccc(Cl)cn2c1[C@H]1CC(=O)Nc2[nH]nc(-c3ccco3)c21`, the “% Inhibition” value is listed as -5% and the Z score is given as 0.95.
Consider `CN(C(=O)c1ccc(N2C(=O)CCS2(=O)=O)cc1Cl)c1ccccc1`, for which the “% Inhibition” value is listed as -14% and the Z score was determined as 1.83.
For `O=C(N[C@@H]1[C@@H]2CCO[C@@H]2[C@H]1N1CCCCC1)c1ccn2nnnc2c1`, in that order: 3% and -0.65.
Taken in the same sequence, the figures for `Cc1cnc(C)c(NCCn2cnc(C)c2C)n1` were -6% and 0.69.
For `C[n+]1cnc(-c2ccccc2)cc1-c1ccccc1`, the “% Inhibition” value is on record as 1% and the Z score is -0.07.
For `COc1ccc(C2CCNCC2NC(=O)CCC2CCOC2)cc1` (stereo not drawn), in that order: -14% and 2.64.
Taken in the same sequence, the figures for `CC(C)N1CCC(NC(=O)CC#N)C1c1ccc(Cl)c(F)c1` (stereo not drawn) were 0% and 0.02.
For `O=C(NCc1cccnc1)c1cc(-n2ccnc2)ccn1`, in that order: -5% and 0.89.
For the molecule `CCOc1cc(C(=O)NCCc2ccccc2OC)ncn1`, the “% Inhibition” value is 0% and the Z score was 0.08.
For the molecule `CCN(CC)CCN(CC(=O)N1CCCN(c2ccc(-c3ccccc3Cl)nn2)CC1)C(=O)COC`, the “% Inhibition” value was -7% and the Z score is given as 0.81.
For `CC(=O)N1CC(C(=O)NCc2oc(C(C)C)nc2C)C1`, in that order: -1% and 0.13.
Taken in the same sequence, the figures for `COC(=O)c1c(NC(=O)c2cc3n(n2)CCC3)c2cccnc2n1C` were -24% and 3.62.
Regarding `Cc1nc[nH]c1C(=O)N(C)Cc1csc(-c2ccccc2)n1`, the “% Inhibition” value is listed as -11% and the Z score is recorded as 2.15.
For `O=C1CCC2(CCN(Cc3ccc(C#CCO)cc3)CC2)CN1C[C@H]1CCCO1`, in that order: 2% and -0.36.
As for `Cc1ncsc1CN[C@@H](C)c1coc2ccccc12`, the “% Inhibition” value came out at 14% and the Z score is -1.81.
Taken in the same sequence, the figures for `COc1cc(CN2C[C@H](NC(C)=O)[C@@H](c3ccc(C)cc3)C2)cc(OC)c1` were -26% and 2.79.
For `Cc1cc(C(=O)N[C@@H](CC(F)F)C(=O)O)cc(Cl)c1Br`, in that order: -19% and 2.13.
`O=C1CCCCC1C1CCCCCN1C(=O)N1CCOCC1` (stereo not drawn): the “% Inhibition” value is listed as 2% and the Z score is recorded as -0.39.
As to `O=C(CN1CCN(S(=O)(=O)c2cccc(F)c2)CC1)NC1CCCCCC1`, the “% Inhibition” value was -8% and the Z score amounted to 0.86.
